Experimental findings from the supplement of paper PMC10126150 are described below.

Sequences with one replicate were seen in a single cluster, so their values are uncertain.
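Also: ATP exposure 15 min at 22 °C before imaging.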

In this series the test system is ATP. The series can be described thus: switch fluorescence ratio, 500 uM ATP over buffer (Cy3 cluster intensity, sum of 5 cycles each) (fold (ratio)); higher = stronger signal-on switching upon ATP binding; sequences stand for … in TCGTCGGCAGCGTCAGATGTGTATAAGAGACAGTTTTTTTTTTTTTTTTTTTTTTTTT…TC. Conditions: aptamer strand: ATP DNA aptamer (quencher-CACCTGGGGGAGTATTGCGGAGGAAGG + anchor), 100 nM annealed; ATP concentration: 500 uM; one replicate. In short, it runs like this: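 Imaging in selection buffer was followed by imaging after 15 min with 500 uM ATP at 22 °C, for Cy3-labelled switching-strand clusters annealed to 100 nM quencher-labelled ATP aptamer on a modified Illumina MiSeq flow-cell. Five of these buffer/ATP cycles ran, separated by NaOH stripping and re-annealing. The fluorescence ratio per cluster is summed target-cycle over summed buffer-cycle Cy3 intensity, averaged per switch-domain sequence; clusters outside 100-1000 RFU were removed.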
Take CGCTGGACGT: the switch fluorescence ratio worked out at 1.01. In the case of CATCCAGAAA it was 1.2. Then TCCGGAAGGG, with 1.05. Then TTATACGGGA, with 0.993; and TTTCGCTGCA, with 1.02. As for TCAATTACGA, the switch fluorescence ratio was 1.03. On to AGAAGTTACC, for which the switch fluorescence ratio stood at 1.13. Then TTGTTCCATG, with 0.992. Then TGATGCTATA, with 0.994; and GCGAGATTGG, with 0.988.

For the sequence TGCGTTACGG, the switch fluorescence ratio stood at 1.02.

On to ATTGGCTCGC, for which the switch fluorescence ratio amounted to 1.

Turning to GAGTAAGAAC, the switch fluorescence ratio is 0.972. Then TTGCGGCTA, with 1.04; and ATGGCCAGGG, with 1.05; and ACATATATAT, with 1.05. Turning to GTTCCGGACT, the switch fluorescence ratio is 0.986. CTGCTTTTGG: the switch fluorescence ratio was determined as 0.972. Then GTCGCCCGTT, with 1.04; and ATAGGTTTGA, with 0.974; and ATGCTAATG, with 1.02. Then CCATGGGAGT, with 1. GTTAATCCAT: the switch fluorescence ratio was 0.982. Then ATGATAAGAT, with 1.03; and TCCAGGCTAG, with 0.981. Then AGAGACTGTT, with 0.989; and TAAAGGGCTA, with 1.

Consider ATTTGTTGC, for which the switch fluorescence ratio is 1.01. Then AGCATTGGAC, with 1.2; and ACATTACCGG, with 1.24. GGGTGGACGA: the switch fluorescence ratio was 0.952. Then GGGCGTCAGC, with 1.01.

As to AGGACGGGTT, the switch fluorescence ratio is 0.98. In the case of AGTTAGAATC it was 0.992; in that of TTGAGCCTGA, 1.02. In the case of GAGTCTGTCA, the switch fluorescence ratio is 0.983. Then CGTTCGACCG, with 1.01; and CGTAGTTACG, with 1.04.

With ATAAGTAATC, the switch fluorescence ratio came out at 1.78. Then GGTTGTTGCG, with 0.97; and CGTGCGGGCG, with 0.942; and AGCATTAAGC, with 0.954.

With GCTCTTCGTA, the switch fluorescence ratio was 1.02. Then AATTGTTCTA, with 0.973; and ATCTGGCGCG, with 1.01. On to CTAAGGGGCG, for which the switch fluorescence ratio came to 1.05. In the case of CCGGTTGATT it was 1.01; in that of TTCGGATTGA, 1; in that of ATTTCAACCA, 0.961. Then CTTTGTTCAG, with 0.987; and ACGAAGAATG, with 0.995; and ACAGGGGTG, with 1.18. In the case of CCATGCATTA it was 1.34. On to TTACCGTACT, for which the switch fluorescence ratio came out at 1.11. In the case of TTTCAGGCGG it was 1.11; in that of ACACTTTGGA, 0.997. In the case of ACTTTCGTCT it was 1.08; in that of ATAAAGCGCA, 0.982; in that of GCGATGATA, 0.978. As to TGTTGCCATG, the switch fluorescence ratio was 1.

As to TCCGGGCCAA, the switch fluorescence ratio came to 3. Turning to GATTCGGAAA, the switch fluorescence ratio came to 1.02. With AGCTTTTGTG, the switch fluorescence ratio came out at 0.958.

TTCCAAAACA: the switch fluorescence ratio was found to be 0.983.

As to ACGGTAACA, the switch fluorescence ratio is 1.2. Then GGGTCACAGC, with 1.01; and AATGAGCAGG, with 1.03. As to GTTGCACTGA, the switch fluorescence ratio was determined as 1.03. Then AAGCTTGCTG, with 0.995. In the case of GAGTCTGTAC, the switch fluorescence ratio came out at 1.03. ACCATGGAG: the switch fluorescence ratio came out at 1.02. In the case of TTGTCAAACA it was 1.02. Then GTGAAGGAGA, with 1; and TGCAACGACT, with 1.06; and ATTTAACGCG, with 1.06. Then GACGTCCTTG, with 0.995.

As to TTAGGTTTCA, the switch fluorescence ratio is 0.969.

As to ATTCGCGATT, the switch fluorescence ratio is 1.07.
